Results reported in article PMC9619224.
Results are given in words; binding and its absence hold for the method and conditions named. In cells and extracts the contact can be indirect. Some results given as binding are weak or reduced against the parent protein; the word gives no strength.

Chains of the proteins cited; added tags and fusions are not shown. Residues count along the entry.
UniProt Q61121: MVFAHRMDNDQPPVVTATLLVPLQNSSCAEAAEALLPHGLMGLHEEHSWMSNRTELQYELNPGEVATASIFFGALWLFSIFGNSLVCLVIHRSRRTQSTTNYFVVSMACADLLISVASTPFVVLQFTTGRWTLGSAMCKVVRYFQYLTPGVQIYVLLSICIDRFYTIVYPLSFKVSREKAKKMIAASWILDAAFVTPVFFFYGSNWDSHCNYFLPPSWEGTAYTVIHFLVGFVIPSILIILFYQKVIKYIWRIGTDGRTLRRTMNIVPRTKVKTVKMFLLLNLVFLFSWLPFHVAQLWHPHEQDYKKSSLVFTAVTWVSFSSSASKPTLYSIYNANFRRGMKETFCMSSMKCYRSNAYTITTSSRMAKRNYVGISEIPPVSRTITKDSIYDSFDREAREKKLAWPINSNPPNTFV
UniProt Q99P50: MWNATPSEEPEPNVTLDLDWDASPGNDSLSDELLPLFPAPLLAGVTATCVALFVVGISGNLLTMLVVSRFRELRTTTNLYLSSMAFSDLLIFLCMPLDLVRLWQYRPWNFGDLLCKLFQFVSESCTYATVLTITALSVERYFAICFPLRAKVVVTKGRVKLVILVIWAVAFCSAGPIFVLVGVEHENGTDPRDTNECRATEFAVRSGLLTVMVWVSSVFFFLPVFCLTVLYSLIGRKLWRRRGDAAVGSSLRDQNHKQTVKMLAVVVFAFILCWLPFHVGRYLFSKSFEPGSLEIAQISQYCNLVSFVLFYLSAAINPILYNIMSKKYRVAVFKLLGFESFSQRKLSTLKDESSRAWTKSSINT
UniProt P34968, residues 33-459: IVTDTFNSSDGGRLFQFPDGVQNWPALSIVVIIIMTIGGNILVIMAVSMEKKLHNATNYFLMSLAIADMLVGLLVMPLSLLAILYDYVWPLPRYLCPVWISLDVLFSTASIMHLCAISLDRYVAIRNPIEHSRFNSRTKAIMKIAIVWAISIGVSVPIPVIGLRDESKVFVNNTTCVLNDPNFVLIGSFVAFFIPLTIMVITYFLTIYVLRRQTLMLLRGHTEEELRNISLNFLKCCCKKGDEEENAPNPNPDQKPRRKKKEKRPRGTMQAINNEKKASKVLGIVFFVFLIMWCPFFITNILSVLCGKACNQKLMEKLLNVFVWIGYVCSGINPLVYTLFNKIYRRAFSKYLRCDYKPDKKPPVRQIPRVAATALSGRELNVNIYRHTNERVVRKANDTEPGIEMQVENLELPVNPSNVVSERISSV
UniProt P30873: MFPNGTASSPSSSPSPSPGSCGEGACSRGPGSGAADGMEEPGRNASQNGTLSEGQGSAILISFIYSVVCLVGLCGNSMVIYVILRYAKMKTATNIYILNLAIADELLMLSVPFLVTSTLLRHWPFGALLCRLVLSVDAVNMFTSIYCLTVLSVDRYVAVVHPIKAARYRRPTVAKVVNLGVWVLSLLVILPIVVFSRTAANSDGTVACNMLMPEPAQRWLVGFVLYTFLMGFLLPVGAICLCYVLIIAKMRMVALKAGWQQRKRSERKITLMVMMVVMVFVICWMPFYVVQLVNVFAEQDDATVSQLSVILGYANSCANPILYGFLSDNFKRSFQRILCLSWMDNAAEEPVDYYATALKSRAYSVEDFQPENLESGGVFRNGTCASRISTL
UniProt P97926: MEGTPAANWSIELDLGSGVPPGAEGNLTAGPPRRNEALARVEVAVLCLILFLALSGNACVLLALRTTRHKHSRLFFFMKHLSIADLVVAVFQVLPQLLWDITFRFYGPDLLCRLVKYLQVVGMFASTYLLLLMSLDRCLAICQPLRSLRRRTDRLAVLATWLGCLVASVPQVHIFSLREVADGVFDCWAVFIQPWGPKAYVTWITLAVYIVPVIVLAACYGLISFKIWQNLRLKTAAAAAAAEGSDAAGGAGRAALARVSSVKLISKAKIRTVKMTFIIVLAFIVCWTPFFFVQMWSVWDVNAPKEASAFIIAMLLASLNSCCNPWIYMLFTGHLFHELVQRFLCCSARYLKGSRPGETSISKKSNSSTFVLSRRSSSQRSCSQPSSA
UniProt P30731, residues 18-423: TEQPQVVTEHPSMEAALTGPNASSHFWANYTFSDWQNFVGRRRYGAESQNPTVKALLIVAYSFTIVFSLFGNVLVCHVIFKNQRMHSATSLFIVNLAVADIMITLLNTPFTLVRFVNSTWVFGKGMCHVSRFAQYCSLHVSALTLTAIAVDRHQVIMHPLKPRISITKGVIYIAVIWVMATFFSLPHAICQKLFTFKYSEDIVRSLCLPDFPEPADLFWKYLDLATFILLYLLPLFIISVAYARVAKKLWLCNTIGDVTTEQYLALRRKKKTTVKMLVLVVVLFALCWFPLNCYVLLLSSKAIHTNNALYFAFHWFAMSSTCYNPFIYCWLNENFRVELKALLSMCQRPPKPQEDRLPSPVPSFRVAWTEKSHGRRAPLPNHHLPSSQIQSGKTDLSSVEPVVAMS
UniProt P35377: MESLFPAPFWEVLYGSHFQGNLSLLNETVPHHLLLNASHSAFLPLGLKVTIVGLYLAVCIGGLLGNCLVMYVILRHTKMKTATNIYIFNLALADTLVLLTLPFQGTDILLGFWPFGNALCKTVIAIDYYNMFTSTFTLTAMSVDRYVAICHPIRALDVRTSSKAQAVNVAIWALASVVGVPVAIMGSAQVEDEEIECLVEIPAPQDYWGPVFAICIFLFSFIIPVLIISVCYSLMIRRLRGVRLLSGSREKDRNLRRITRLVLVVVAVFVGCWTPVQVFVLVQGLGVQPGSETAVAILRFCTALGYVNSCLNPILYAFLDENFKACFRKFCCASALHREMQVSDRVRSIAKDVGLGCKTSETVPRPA
UniProt Q62053: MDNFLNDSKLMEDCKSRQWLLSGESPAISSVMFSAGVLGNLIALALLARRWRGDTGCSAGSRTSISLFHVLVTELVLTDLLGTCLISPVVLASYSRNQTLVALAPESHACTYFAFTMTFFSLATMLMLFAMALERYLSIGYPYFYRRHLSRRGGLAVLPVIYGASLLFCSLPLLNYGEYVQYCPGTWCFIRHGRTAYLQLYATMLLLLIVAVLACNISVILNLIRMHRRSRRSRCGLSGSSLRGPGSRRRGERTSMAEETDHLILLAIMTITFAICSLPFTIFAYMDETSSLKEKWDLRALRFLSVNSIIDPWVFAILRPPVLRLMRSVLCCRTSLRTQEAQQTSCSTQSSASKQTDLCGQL
UniProt Q99LE2: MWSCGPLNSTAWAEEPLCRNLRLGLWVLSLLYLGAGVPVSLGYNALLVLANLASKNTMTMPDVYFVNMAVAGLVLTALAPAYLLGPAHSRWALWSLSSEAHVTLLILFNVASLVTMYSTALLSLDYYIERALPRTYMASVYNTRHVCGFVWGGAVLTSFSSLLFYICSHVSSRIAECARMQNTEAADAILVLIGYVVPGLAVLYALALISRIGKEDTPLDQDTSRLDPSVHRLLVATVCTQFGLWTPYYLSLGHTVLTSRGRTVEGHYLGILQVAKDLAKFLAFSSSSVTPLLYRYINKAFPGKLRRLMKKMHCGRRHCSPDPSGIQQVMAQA

Experiments:
Assay in all cases: co-IP; HEK293T cells transfected with 3xHA-GPCR and 2xFlag-MRAP1 or MRAP2; GPCR immunoprecipitated with rabbit anti-HA, Protein A/G agarose, overnight at 4°C; MRAP detected by mouse anti-Flag blot
[1] = molecular target: T1, G protein‐coupled receptor 176 (mouse) (UniProt Q80WT4)
T1 sequence: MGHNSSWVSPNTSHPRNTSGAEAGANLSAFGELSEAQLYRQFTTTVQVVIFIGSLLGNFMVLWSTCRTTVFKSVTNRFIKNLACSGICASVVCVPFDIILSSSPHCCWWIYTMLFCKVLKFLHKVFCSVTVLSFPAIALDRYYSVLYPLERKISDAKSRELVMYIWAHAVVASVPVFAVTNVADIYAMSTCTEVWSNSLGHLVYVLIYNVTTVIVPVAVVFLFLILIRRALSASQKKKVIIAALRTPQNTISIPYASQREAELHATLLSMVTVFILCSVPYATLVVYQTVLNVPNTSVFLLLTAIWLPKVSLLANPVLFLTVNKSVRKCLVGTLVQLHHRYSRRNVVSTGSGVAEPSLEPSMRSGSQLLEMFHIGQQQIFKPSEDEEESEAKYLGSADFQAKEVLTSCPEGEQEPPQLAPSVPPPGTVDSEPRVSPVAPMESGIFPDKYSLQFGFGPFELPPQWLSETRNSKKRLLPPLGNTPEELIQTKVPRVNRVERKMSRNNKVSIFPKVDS

[2] = molecular target: G protein‐coupled receptor 19 (mouse) (UniProt Q61121)
[3] = molecular target: Growth hormone secretagogue receptor (mouse) (UniProt Q99P50)
[4] = molecular target: T2, Pyroglutamylated RFamide peptide receptor (mouse) (UniProt P83861)
T2 sequence: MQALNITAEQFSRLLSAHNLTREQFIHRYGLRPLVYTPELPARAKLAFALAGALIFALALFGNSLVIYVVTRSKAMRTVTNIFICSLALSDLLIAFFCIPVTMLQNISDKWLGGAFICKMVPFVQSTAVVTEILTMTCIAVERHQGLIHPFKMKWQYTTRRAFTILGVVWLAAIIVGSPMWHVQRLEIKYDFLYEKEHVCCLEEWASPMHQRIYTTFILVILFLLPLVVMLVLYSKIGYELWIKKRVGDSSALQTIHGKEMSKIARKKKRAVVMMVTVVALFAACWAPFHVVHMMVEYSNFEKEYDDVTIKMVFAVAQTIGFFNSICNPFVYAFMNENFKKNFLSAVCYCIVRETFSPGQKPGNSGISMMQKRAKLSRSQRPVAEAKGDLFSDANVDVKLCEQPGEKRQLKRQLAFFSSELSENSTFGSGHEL

[5] = molecular target: 5‐Hydroxytryptamine (serotonin) receptor 2C (mouse) (UniProt P34968)
[6] = molecular target: Somatostatin receptor 1 (mouse) (UniProt P30873)
[7] = molecular target: Oxytocin receptor (mouse) (UniProt P97926)
[8] = molecular target: G protein‐coupled receptor 83 (mouse) (UniProt P30731)
[9] = molecular target: Opioid receptor‐like 1 (mouse) (UniProt P35377)
[10] = molecular target: Prostaglandin E receptor 2 (subtype EP2) (mouse) (UniProt Q62053)
[11] = molecular target: G protein‐coupled receptor 146 (mouse) (UniProt Q99LE2)
[12] = molecular target: T3, G protein‐coupled receptor 150 (mouse) (UniProt Q8BL07)
T3 sequence: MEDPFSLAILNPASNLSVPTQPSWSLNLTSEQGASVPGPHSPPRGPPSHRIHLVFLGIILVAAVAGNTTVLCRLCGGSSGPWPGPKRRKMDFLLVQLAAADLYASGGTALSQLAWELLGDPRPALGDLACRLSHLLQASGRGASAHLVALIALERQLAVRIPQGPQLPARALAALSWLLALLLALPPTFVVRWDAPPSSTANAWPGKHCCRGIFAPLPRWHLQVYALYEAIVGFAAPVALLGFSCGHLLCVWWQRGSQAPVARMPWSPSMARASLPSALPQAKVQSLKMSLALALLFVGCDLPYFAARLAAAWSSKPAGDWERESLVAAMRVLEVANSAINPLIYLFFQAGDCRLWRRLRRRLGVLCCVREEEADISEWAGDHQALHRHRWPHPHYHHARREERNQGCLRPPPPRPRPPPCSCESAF

Binder | binding [1] | binding [2] | binding [3] | binding [4] | binding [5] | binding [6] | binding [7] | binding [8] | binding [9] | binding [10] | binding [11] | binding [12]
melanocortin receptor accessory protein MRAP1 (protein, UniProt Q9D159 1-127) MANGTDASVPLTSYEYYLDYIDLIPVDEKKLKANKHSIVIALWLSLATFVVLLFLILLYMSWSGSPQMRHSPQPQPICSWTHSFNLPLCLRRASLQTTEEPGRRAGTDQWLTQQSPSASAPGPLALP | no binding | no binding | binds | no binding | binds | binds | binds | binds | binds | binds | binds | no binding
melanocortin receptor accessory protein MRAP2 (protein, UniProt D3Z1Q2 1-207) MEMSAQRLASNRTSPQSPSNSDYTWEYEYYEIGPVSFEGLKAHKYSIVIGFWVGLAVFVIFMFFVLTLLTKTGAPHQDNAESSERRFRMNSFVSDFGKPLESDKVFSRQGNEESRSLFHCYINEVEHLDRVKVCHQTTAIDSDVHLQEASRSSGRPEEELARFMKFDIPNFVNTEQSSFGEDDLLISEAPVLLENKPVSQTSRIDLD | binds | binds | binds | binds | binds | no binding | no binding | binds | binds | binds | binds | binds
